These results are taken from PMC6919601, “Identification of Plasmodium dipeptidyl aminopeptidase allosteric inhibitors by high throughput screening” (PLoS ONE, 2019).

Screen size: about 110,000 compounds; about 230 (0.21%) showed an effect of 50% or more. The list shows a part of the results.
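Note: 30 min substrate incubation versus DMSO and 10 µM JCP410 controls.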

Sequence of DPAP1 (Q8IIJ9 whole entry, looked up): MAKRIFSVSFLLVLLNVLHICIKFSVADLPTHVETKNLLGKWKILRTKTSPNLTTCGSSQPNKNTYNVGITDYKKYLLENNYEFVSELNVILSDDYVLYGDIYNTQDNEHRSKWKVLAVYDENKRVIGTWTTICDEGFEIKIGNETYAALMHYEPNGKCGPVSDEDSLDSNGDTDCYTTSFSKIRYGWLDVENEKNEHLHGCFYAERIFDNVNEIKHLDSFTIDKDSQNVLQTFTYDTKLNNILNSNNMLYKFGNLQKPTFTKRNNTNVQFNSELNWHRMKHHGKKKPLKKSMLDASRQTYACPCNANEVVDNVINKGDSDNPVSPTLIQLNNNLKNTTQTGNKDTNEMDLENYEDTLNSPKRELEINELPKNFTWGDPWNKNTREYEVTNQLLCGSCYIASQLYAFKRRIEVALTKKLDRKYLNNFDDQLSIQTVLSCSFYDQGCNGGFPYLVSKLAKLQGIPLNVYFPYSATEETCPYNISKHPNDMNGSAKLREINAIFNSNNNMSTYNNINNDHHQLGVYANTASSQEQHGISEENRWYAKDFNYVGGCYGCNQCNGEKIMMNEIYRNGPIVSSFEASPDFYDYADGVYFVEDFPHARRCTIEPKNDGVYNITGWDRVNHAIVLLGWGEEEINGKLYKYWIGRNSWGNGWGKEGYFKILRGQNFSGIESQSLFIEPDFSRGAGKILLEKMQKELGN

This experiment addresses DPAP1 (Plasmodium falciparum, UniProt Q8IIJ9). Briefly: primary screen, percent inhibition; read by cleavage of a fluorogenic dipeptide substrate; higher = more effect of the substance. Further details: species or system P. falciparum D10 trophozoite lysates; single well.
As for `O=C(O)CN(CCCc1ccccc1)CC(=O)O`, the “% Inhibition @ 10 uM” value is on record as 2.81%.

For the compound `COc1ccc(Cl)cc1C(=O)Nc1c(F)cccc1F`, the “% Inhibition @ 10 uM” value is on record as -0.469%.

In the case of `CCOc1cc(C(=O)Nc2nc3c(s2)CCCC3)cc(OCC)c1OCC`, the “% Inhibition @ 10 uM” value was determined as 0.583%.

For the compound `O=C(CSCC(=O)N1CCCC1)Nc1ccc(F)cc1`, the “% Inhibition @ 10 uM” value is recorded as 2.76%.

With `Cc1ccc(S(=O)(=O)n2cnc(-c3ccccc3)c2-c2ccccc2)cc1`, the “% Inhibition @ 10 uM” value was -2.91%.

With `Cc1cc(C)c(NC(=O)CN2CCN(Cc3ccccc3)CC2)c(C)c1`, the “% Inhibition @ 10 uM” value is given as 3.47%.

Take `COc1cccc(N2CCN(C3CC(=O)N(c4cccc(C(F)(F)F)c4)C3=O)CC2)c1` (centres unmarked): the “% Inhibition @ 10 uM” value is listed as 3.17%.

As to `CSc1nn(Cc2ccc(F)cc2)c(N)c1S(=O)(=O)c1ccccc1`, the “% Inhibition @ 10 uM” value worked out at 0.0575%.

Regarding `COc1ccc(N2CCN(C(=O)CN(c3cccc(C)c3)S(C)(=O)=O)CC2)cc1`, the “% Inhibition @ 10 uM” value was found to be 9.03%.

Consider `CCc1nn(CC(=O)NC(C)c2ccc3c(c2)OCCO3)c(=O)c2cc3sccc3n12` (centres unmarked), for which the “% Inhibition @ 10 uM” value is -1.58%.

With `COc1cc(C2Cc3c(C(=O)O)c(=O)cc(C)n3-c3ccccc3S2)ccc1O` (centres unmarked), the “% Inhibition @ 10 uM” value came to 2.33%.

For `COc1cccc(C2NC(=O)NC(C)=C2C(=O)Nc2cccc(Cl)c2)c1` (centres unmarked), the “% Inhibition @ 10 uM” value is reported as 1.27%.

Regarding `Cc1cc2oc(C(=O)NCc3ccccc3)cc(=O)c2cc1C`, the “% Inhibition @ 10 uM” value is -3.24%.

With `N#Cc1c(O)nc(S)nc1-c1ccccc1O`, the “% Inhibition @ 10 uM” value amounted to 6.4%.

Take `CC(C)(O)C#Cc1ccc(C(=O)N2CCN(c3ccccc3Cl)CC2)cc1`: the “% Inhibition @ 10 uM” value was 0.392%.

In the case of `CC(C)OCCCNC(=O)C1CCCN(S(C)(=O)=O)C1` (centres unmarked), the “% Inhibition @ 10 uM” value came to 2.18%.

As to `CCO/C(O)=C1/C(C)=NC2=C(C(=O)CCC2)C1c1ccc(N(CC)CC)cc1` (centres unmarked), the “% Inhibition @ 10 uM” value is on record as -1.75%.

Regarding `CCOC(=O)c1c(-c2ccc(OC)cc2)nc2nonc2c1N`, the “% Inhibition @ 10 uM” value is recorded as 2.99%.

For the compound `COc1ccc(C2CC3=NC(C)=C(C(=O)OC(C)C)C(c4ccc(OC)c(OC)c4)C3=C(O)C2)cc1` (centres unmarked), the “% Inhibition @ 10 uM” value is recorded as 19.4%.

Take `COc1ccc(/C=C2\SC(=O)N(CC(=O)Nc3ccc(F)cc3)C2=O)cc1O`: the “% Inhibition @ 10 uM” value is on record as 4.57%.

On to `CC1CCc2c(sc(NC(=O)CN3CCN(C)CC3)c2C#N)C1` (centres unmarked), for which the “% Inhibition @ 10 uM” value is 3.96%.

For `Cc1ccccc1Nc1nc(-c2ccc(Cl)cc2)cs1`, the “% Inhibition @ 10 uM” value is recorded as 1.72%.

With `Cc1ccc(C=C2C(=O)c3ccccc3C2=O)o1`, the “% Inhibition @ 10 uM” value is -2.18%.

In the case of `CCCCOc1ccc(C(=O)N(Cc2sccc2C)C2CCS(=O)(=O)C2)cc1` (centres unmarked), the “% Inhibition @ 10 uM” value is -1.11%.

As to `CC(C)CC(C(=O)NCC#N)c1cccc(-c2ccc(OC3CCN(C(=O)OC(C)(C)C)CC3)cc2)c1` (centres unmarked), the “% Inhibition @ 10 uM” value is reported as -1.61%.

Take `Cc1ccc(C2CC(=O)c3cnc(NCc4ccccc4)nc3C2)cc1` (centres unmarked): the “% Inhibition @ 10 uM” value was -1.92%.

For `CCOc1ccccc1C(=O)N(Cc1cccc(OC)c1)C1CCS(=O)(=O)C1` (centres unmarked), the “% Inhibition @ 10 uM” value is listed as -1.35%.

On to `O=C(CSc1n[nH]c(-c2ccccc2)n1)Nc1ccc(Br)cn1`, for which the “% Inhibition @ 10 uM” value came out at 0.726%.

Turning to `CC1C2CC(CC2c2ccccc2O)C1(C)C` (centres unmarked), the “% Inhibition @ 10 uM” value is recorded as 4.11%.

Turning to `COc1ccc(CCNC(=O)CCc2nc(O)c3c4c(sc3n2)CCCC4)cc1OC`, the “% Inhibition @ 10 uM” value is listed as -0.228%.

In the case of `CN(C)CCN(C)Cc1ccccc1`, the “% Inhibition @ 10 uM” value stood at 1.14%.

`Cc1c(C(c2cc3c(cc2Br)OCO3)c2c(C)n(C)n(-c3ccccc3)c2=O)c(=O)n(-c2ccccc2)n1C`: the “% Inhibition @ 10 uM” value is given as -6.44%.

Consider `O=C(Nc1ccc(CN2CCOCC2)cc1)c1cc(Br)ccc1Cl`, for which the “% Inhibition @ 10 uM” value is -0.173%.

As to `Cc1cc(C)n(-c2nnc3c4ccccc4n(Cc4ccccc4)c3n2)n1`, the “% Inhibition @ 10 uM” value is on record as -0.693%.

On to `Cc1nc2c(c(C)c1CCC(=O)N1CCCC(c3ccccc3)C1)c(=O)n(C)c(=O)n2C` (centres unmarked), for which the “% Inhibition @ 10 uM” value came to 3.75%.

Regarding `O=C(NCc1cccnc1)c1ccc(Cl)cc1`, the “% Inhibition @ 10 uM” value was determined as 5.09%.

With `Cc1cc(OCc2nc(-c3ccc(OCC(N)=O)cc3)no2)cc(C)c1Cl`, the “% Inhibition @ 10 uM” value is recorded as -0.828%.

On to `O=C1c2ccccc2C(=O)N1CCCN1CCN(CCCN2C(=O)c3ccccc3C2=O)CC1`, for which the “% Inhibition @ 10 uM” value is on record as 2.94%.

`c1ccc(CSc2ncnc3[nH]cnc23)cc1`: the “% Inhibition @ 10 uM” value is recorded as -3.06%.

Regarding `CCOc1cc(/C=N/n2c(C)nnc2-n2nc(C)cc2C)ccc1OC`, the “% Inhibition @ 10 uM” value was determined as 4.18%.

For the compound `CC(=O)c1cccc(/N=c2\scc(-c3ccc(S(=O)(=O)N4CCOCC4)cc3)n2CCO)c1`, the “% Inhibition @ 10 uM” value is on record as -10.5%.

As for `O=C(NC1CCN(Cc2ccccc2)CC1)c1ccc(CS(=O)Cc2cccc(Cl)c2)o1` (centres unmarked), the “% Inhibition @ 10 uM” value came to 0.124%.

As for `CC(C)Nc1nc(-c2ccccc2O)nc2ccccc12`, the “% Inhibition @ 10 uM” value is recorded as 0.247%.

With `Cc1nc(SCC(=O)O)c(C#N)c(C)c1C`, the “% Inhibition @ 10 uM” value is on record as 72.9%.

For `CSc1nc2c(c(=O)n1-c1ccc(C)cc1)C1(CCCCC1)Cc1ccccc1-2`, the “% Inhibition @ 10 uM” value is recorded as 3.01%.

Turning to `COc1ccc(NC2=C(Cl)C(=O)N(c3ccc(C)cc3C)C2=O)cc1`, the “% Inhibition @ 10 uM” value is reported as -0.864%.

As for `CNC(=O)c1cccnc1Nc1ccc(Cl)cc1`, the “% Inhibition @ 10 uM” value was 3.24%.

In the case of `CC(Cc1cccc(C(F)(F)F)c1)N[C@H]1CCCCNC1=O` (some centres unmarked), the “% Inhibition @ 10 uM” value was found to be 1.38%.

For `Cc1cc(C)c2nc3s/c(=C\c4ccccc4)c(=O)n3c2c1`, the “% Inhibition @ 10 uM” value is -1.66%.

Turning to `CC(Oc1ccccc1)C(=O)Nc1ccccc1Br` (centres unmarked), the “% Inhibition @ 10 uM” value is listed as 0.843%.
